In patent US20220017601A1 (JIANGSU HENGRUI MEDICINE, published 2022):

Experiments:
human TGF-β1 [1] = biological target: T1, human TGF-β1 (human, UniProt P01137 in part); assay: cell-based or functional assay
murine TGF-β1 = biological target: T2, murine TGF-β1 (murine, UniProt P04202 in part, limits assumed); assay: SPR, Biacore T200, fusion protein captured on Protein A chip, 1:1 Langmuir fit
T2 construct: Bought protein; also called murine TGF-β1 (8915LC, CST)

[2] = biological target: T3, human PD-L1 (Sino Biological) (human, UniProt Q9NZQ7 in part, limits assumed); assay: as above
T3 construct: Analyte in the Biacore assay; also called human PD-L1 protein
T3 sequence (Q9NZQ7 19-239 limits assumed): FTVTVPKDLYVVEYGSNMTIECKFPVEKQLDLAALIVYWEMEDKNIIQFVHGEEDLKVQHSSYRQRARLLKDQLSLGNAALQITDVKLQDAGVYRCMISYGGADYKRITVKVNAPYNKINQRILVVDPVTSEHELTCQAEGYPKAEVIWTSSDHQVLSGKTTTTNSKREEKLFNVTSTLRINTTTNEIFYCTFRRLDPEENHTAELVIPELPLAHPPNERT

human TGF-β1 [3] = biological target: T1, human TGF-β1; assay: as above
T1 sequence (P01137 279-390 limits assumed): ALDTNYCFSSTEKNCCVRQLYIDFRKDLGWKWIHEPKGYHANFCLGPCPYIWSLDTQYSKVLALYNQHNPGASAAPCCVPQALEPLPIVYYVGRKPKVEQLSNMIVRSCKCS

Sequence of murine TGF-β1 (P04202 279-390 limits assumed): as the sequence (P01137 279-390 limits assumed) above, with A75S counted along it

- IC50 (read off the curve), RLU of the TGF-β1-induced SMAD3 reporter (human TGF-β1 [1]): ~0.02 nM
B1: FP17022 (other)
heavy: EVQLLESGGGLVQPGGSLRLSCAASGFTFSSYIMMWVRQAPGKGLEWVSSIYPSGGITFYADTVKGRFTISRDNSKNTLYLQMNSLRAEDTAVYYCARIKLGTVTTVDYWGQGTLVTVSSASTKGPSVFPLAPSSKSTSGGTAALGCLVKDYFPEPVTVSWNSGALTSGVHTFPAVLQSSGLYSLSSVVTVPSSSLGTQTYICNVNHKPSNTKVDKRV[human IgG1 Fc not shown]GGGGSGGGGSGGGGSGGGGSGIPPHVQKSVNNDMIVTDNNGAVKFPQLCKFCDVRFSTCDNQKSCMSNCSITSICEKPQEVCVAVWRKNDENITLETVCHDPKLPYHDFILEDAASPKCIMKEKKKPGETFFMCSCSSDECNDNIIFSEEYNTSNPD
light: QSALTQPASVSGSPGQSITISCTGTSSDVGGYNYVSWYQQHPGKAPKLMIYDVSNRPSGVSNRFSGSKSGNTASLTISGLQAEDEADYYCSSYTSSSTRVFGTGTKVTVLGQPKANPTVTLFPPSSEELQANKATLVCLISDFYPGAVTVAWKADGSPVKAGVETTKPSKQSNNKYAASSYLSLTPEQWKSHRSYSCQVTHEGSTVEKTVAPTECS

- IC50 (read off the curve), RLU of the TGF-β1-induced SMAD3 reporter (human TGF-β1 [1]): ~0.03 nM
- Kd (murine TGF-β1): 0.0307 nM
- koff (murine TGF-β1): 0.00133 s⁻¹
- kon (murine TGF-β1): 4.33e+07 M⁻¹ s⁻¹
- Kd [2]: 0.0631 nM
- koff [2]: 0.000124 s⁻¹
- kon [2]: 1.97e+06 M⁻¹ s⁻¹
- Kd (human TGF-β1 [3]): 0.0422 nM
- koff (human TGF-β1 [3]): 0.000728 s⁻¹
- kon (human TGF-β1 [3]): 1.73e+07 M⁻¹ s⁻¹
B2: Fusion protein 9 (other)
heavy: QVQLVQSGAEVKKPGASVKVSCKASGYTFTSYWMHWVRQAPGQGLEWMGRIGPNSGFTSYNEKFKNRVTMTRDTSTSTVYMELSSLRSEDTAVYYCARGGSSYDYFDYWGQGTTVTVSSASTKGPSVFPLAPCSRSTSESTAALGCLVKDYFPEPVTVSWNSGALTSGVHTFPAVLQSSGLYSLSSVVTVPSSSLGTKTYTCNVDHKPSNTKVDKRV[human IgG4 Fc with S228P F234A L235A (EU numbers) not shown]AGGGGSGGGGSGGGGSGGGGSGGAVKFPQLCKFCDVRFSTCDNQKSCMSNCSITSICEKPQEVCVAVWRKNDENITLETVCHDPKLPYHDFILEDAASPKCIMKEKKKPGETFFMCSCSSDECNDNIIFSEEYNTSNPD
light: DIVLTQSPASLAVSPGQRATITCRASESVSIHGTHLMHWYQQKPGQPPKLLIYAASNLESGVPARFSGSGSGTDFTLTINPVEAEDTANYYCQQSFEDPLTFGQGTKLEIKRTVAAPSVFIFPPSDEQLKSGTASVVCLLNNFYPREAKVQWKVDNALQSGNSQESVTEQDSKDSTYSLSSTLTLSKADYEKHKVYACEVTHQGLSSPVTKSFNRGEC
notes: Antibody-receptor ECD fusion; also called Ab-(G4S)4G-ECD (20-136); PD-L1/TGF-β trap

- Kd (murine TGF-β1): 0.0342 nM
- koff (murine TGF-β1): 0.00122 s⁻¹
- kon (murine TGF-β1): 3.57e+07 M⁻¹ s⁻¹
- Kd [2]: 0.061 nM
- koff [2]: 0.000124 s⁻¹
- kon [2]: 2e+06 M⁻¹ s⁻¹
- Kd (human TGF-β1 [3]): 0.0226 nM
- koff (human TGF-β1 [3]): 0.000608 s⁻¹
- kon (human TGF-β1 [3]): 2.69e+07 M⁻¹ s⁻¹
B3: Fusion protein 15 (other)
heavy: QVQLVQSGAEVKKPGASVKVSCKASGYTFTSYWMHWVRQAPGQGLEWMGRIGPNSGFTSYNEKFKNRVTMTRDTSTSTVYMELSSLRSEDTAVYYCARGGSSYDYFDYWGQGTTVTVSSASTKGPSVFPLAPCSRSTSESTAALGCLVKDYFPEPVTVSWNSGALTSGVHTFPAVLQSSGLYSLSSVVTVPSSSLGTKTYTCNVDHKPSNTKVDKRV[human IgG4 Fc with S228P F234A L235A (EU numbers) not shown]AGGGGSGGGGSGGGGSGGGGSGGGGSGVKFPQLCKFCDVRFSTCDNQKSCMSNCSITSICEKPQEVCVAVWRKNDENITLETVCHDPKLPYHDFILEDAASPKCIMKEKKKPGETFFMCSCSSDECNDNIIFSEEYNTSNPD
light: B2 light
notes: Antibody-receptor ECD fusion; also called Ab-(G4S)5G-ECD (22-136); PD-L1/TGF-β trap

Each block holds one binder with its values, some of them ahead of it.
